According to the supplement of paper PMC5919970:
Structures can show the parent of a compound that is named as a salt. Whole data set: some 2,000 compounds, median “fractional viability relative to vehicle” near 0.92, cut for the lowest 2% near 0.11. The list shows a part of the results.

Tested on: TYKNU
Test: fractional viability relative to vehicle; TYKNU is a high-grade serous ovarian cancer line; higher = less growth inhibition
Conditions: 72 h, genotype: OPA1 knockout (sgOPA1 #2)
Summary of the method: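 Drug treatment lasted 72 h, with cells grown at 37 °C in 5% CO2 in RPMI 1640 supplemented with 10% FBS. Beforehand, TYKNU control cells or their lentiCRISPRv2 knockout derivatives had been seeded at 500 cells per well into drug-stamped 384-well plates carrying a ~2100-compound library at 2 or 10 μM, in duplicate. Viability came from Cell Titer Glo luminescence, with averaged duplicate treatment wells normalised to duplicate control wells in the same plate position.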

Oc1c(Cl)cc(Cl)c2cccnc12 [Chloroxine]
fractional viability (2uM): 1.02 | fractional viability (10uM): 0.406

COc1cc(Nc2c(C#N)cnc3cc(OCCCN4CCN(C)CC4)c(OC)cc23)c(Cl)cc1Cl [Bosutinib (SKI-606)]
fractional viability (2uM): 0.995 | fractional viability (10uM): 0.284

CCCCc1oc2ccc(NS(C)(=O)=O)cc2c1C(=O)c1ccc(OCCCN(CCCC)CCCC)cc1 [Dronedarone HCl]
fractional viability (2uM): 0.835 | fractional viability (10uM): 0.106

CCC1(c2ccccc2)C(=O)NCNC1=O [Primidone]
fractional viability (2uM): 0.969 | fractional viability (10uM): 0.974

Cc1cc(F)c(Nc2ncnc3cc(OCc4ccccc4)ccc23)cc1O
fractional viability (2uM): 1.35 | fractional viability (10uM): 1.43

Cn1cncc1[C@@](N)(c1ccc(Cl)cc1)c1ccc2c(c1)c(-c1cccc(Cl)c1)cc(=O)n2C [Tipifarnib]
fractional viability (2uM): 0.743 | fractional viability (10uM): 0.667

Cc1cc(C#N)cc(C)c1Oc1nc(Nc2ccc(C#N)cc2)nc(N)c1Br [Etravirine (TMC125)]
fractional viability (2uM): 0.831 | fractional viability (10uM): 0.472

O=c1[nH]c(=O)n([C@H]2C[C@H](O)[C@@H](CO)O2)cc1C(F)(F)F [Trifluridine]
fractional viability (2uM): 0.982 | fractional viability (10uM): 0.755

CC(C)n1cnc2c(NCCc3ccc(O)cc3)nc(-c3csc4ccccc34)nc21 [StemRegenin 1 (SR1)]
fractional viability (2uM): 1.1 | fractional viability (10uM): 0.769

Cc1nc2c(O)cccc2c(=O)[nH]1
fractional viability (2uM): 0.925 | fractional viability (10uM): 0.903

O=C(NNc1ccccc1)c1ccncc1
fractional viability (2uM): 0.769 | fractional viability (10uM): 0.792

Cc1cccc(-c2[nH]ncc2-c2ccc3ncccc3n2)n1
fractional viability (2uM): 1.13 | fractional viability (10uM): 1.48

CN(Cc1ccc(C(C)(C)C)cc1)Cc1cccc2ccccc12 [Butenafine HCl]
fractional viability (2uM): 1.01 | fractional viability (10uM): 0.817

O=C(NCCCNc1nc(Nc2cccc(NC(=O)N3CCCC3)c2)ncc1I)c1cccs1
fractional viability (2uM): 1.15 | fractional viability (10uM): 0.316

S=c1[nH]cnc2nc[nH]c12 [Mercaptopurine (6-MP)]
fractional viability (2uM): 1.23 | fractional viability (10uM): 1.03

NS(=O)(=O)c1ccc(NC(=O)Nc2ccc(F)cc2)cc1
fractional viability (2uM): 0.849 | fractional viability (10uM): 0.925

O=C(c1ccc(F)cc1)N1CCC[C@H](c2nc(-c3ccc(F)cc3)no2)C1
fractional viability (2uM): 1.05 | fractional viability (10uM): 0.824

Cc1ccc(Cl)cc1N(CC(=O)Nc1c(F)cccc1F)S(C)(=O)=O
fractional viability (2uM): 0.841 | fractional viability (10uM): 0.641

O=C1Nc2ccc(I)cc2/C1=C/c1cc(Br)c(O)c(Br)c1
fractional viability (2uM): 1.04 | fractional viability (10uM): 0.798

O=C1N=C(O)NC1(c1ccccc1)c1ccccc1 [Phenytoin sodium]
fractional viability (2uM): 1.01 | fractional viability (10uM): 0.969

COc1cc(NS(=O)(=O)c2ccc(N)cc2)nc(OC)n1 [Sulphadimethoxine]
fractional viability (2uM): 1.18 | fractional viability (10uM): 0.91

CC1(C)O[C@@H]2[C@@H](CO[C@@]3(COS(N)(=O)=O)OC(C)(C)O[C@@H]23)O1 [Topiramate]
fractional viability (2uM): 1.24 | fractional viability (10uM): 1.04

CN(C)c1cc(NC(=O)CNC(C)(C)C)c(O)c2c1C[C@H]1C[C@H]3[C@H](N(C)C)C(O)=C(C(N)=O)C(=O)[C@@]3(O)C(O)=C1C2=O [Tigecycline]
fractional viability (2uM): 1.1 | fractional viability (10uM): 0.751

CCNc1nc(Nc2cc(F)c(C(=O)N3CCOCC3)cc2OC)ncc1C(F)(F)F
fractional viability (2uM): 0.943 | fractional viability (10uM): 0.896

CN(C)c1ccc(-c2nc3ncc(Cl)c(N4CCN(CC(=O)Nc5nccs5)CC4)c3[nH]2)cc1
fractional viability (2uM): 1.11 | fractional viability (10uM): 0.621

NC1=NCC2c3ccccc3Cc3ccccc3N12 (centres undefined) [Epinastine HCl]
fractional viability (2uM): 0.96 | fractional viability (10uM): 0.832

NC(=O)N1c2ccccc2CC(=O)c2ccccc21 [Oxcarbazepine]
fractional viability (2uM): 1.04 | fractional viability (10uM): 0.689

Cc1nc2ccc(NC(=O)Nc3ccnc4cccnc34)cc2o1
fractional viability (2uM): 0.834 | fractional viability (10uM): 0.759

Oc1nc(-c2ccc(C(F)(F)F)cc2)nc2c1CSCC2
fractional viability (2uM): 1.13 | fractional viability (10uM): 0.683

O=C(O)c1cc2cccc([N+](=O)[O-])c2[nH]1
fractional viability (2uM): 0.884 | fractional viability (10uM): 0.819

COc1ccc(CCc2nc3cc(-c4c(C)noc4C)ccc3n2C[C@H](C)N2CCOCC2)cc1Cl
fractional viability (2uM): 0.813 | fractional viability (10uM): 0.639

CNCc1ccc(-c2[nH]c3cc(F)cc4c3c2CCNC4=O)cc1
fractional viability (2uM): 1.22 | fractional viability (10uM): 1.29

CCCNC(C)C(=O)Nc1c(C)csc1C(=O)OC (centres undefined) [Articaine HCl]
fractional viability (2uM): 0.957 | fractional viability (10uM): 0.937

CCNC(=O)c1noc(-c2cc(C(C)C)c(O)cc2O)c1-c1ccc(CN2CCOCC2)cc1
fractional viability (2uM): 0.627 | fractional viability (10uM): 0.642

CC(=O)C1=C(O)C=C2Oc3c(C(C)=O)c(O)c(C)c(O)c3C2(C)C1=O (single isomer, unassigned; (+)) [(+)-Usniacin]
fractional viability (2uM): 1.13 | fractional viability (10uM): 1

COc1ccc2c(c1)C(=O)N(CCc1ccc(S(=O)(=O)NC(=O)NC3CCCCC3)cc1)C(=O)C2(C)C [Gliquidone]
fractional viability (2uM): 1.14 | fractional viability (10uM): 0.966

C=CCc1ccc(O)c(-c2cc(CC=C)ccc2O)c1 [Magnolol]
fractional viability (2uM): 1.13 | fractional viability (10uM): 0.919
